From PubChem BioAssay AID488969 (Vanderbilt High Throughput Screening Facility, 2010)
In all, about 110,000 compounds were measured (“z-score”: median about -0.1, highest 2% from about 2 on). The list shows a part of the results.

The compounds below were run against Metabotropic glutamate receptor 8 (Rattus norvegicus) (UniProt P70579) (assay: mGluR8 Gi/Go-coupled signaling modulation – cell-based, rat, thallium flux, HTS, primary screen (AID 488969)). Details: HEK293 rat mGluR8, GIRK (G protein-gated inwardly rectifying potassium channel) thallium flux, FluoZin2; at 10 µM; stronger effect = higher value; submaximal glutamate (EC20) added with thallium.
Chain of UniProt P70579 (P70579 whole entry, looked up): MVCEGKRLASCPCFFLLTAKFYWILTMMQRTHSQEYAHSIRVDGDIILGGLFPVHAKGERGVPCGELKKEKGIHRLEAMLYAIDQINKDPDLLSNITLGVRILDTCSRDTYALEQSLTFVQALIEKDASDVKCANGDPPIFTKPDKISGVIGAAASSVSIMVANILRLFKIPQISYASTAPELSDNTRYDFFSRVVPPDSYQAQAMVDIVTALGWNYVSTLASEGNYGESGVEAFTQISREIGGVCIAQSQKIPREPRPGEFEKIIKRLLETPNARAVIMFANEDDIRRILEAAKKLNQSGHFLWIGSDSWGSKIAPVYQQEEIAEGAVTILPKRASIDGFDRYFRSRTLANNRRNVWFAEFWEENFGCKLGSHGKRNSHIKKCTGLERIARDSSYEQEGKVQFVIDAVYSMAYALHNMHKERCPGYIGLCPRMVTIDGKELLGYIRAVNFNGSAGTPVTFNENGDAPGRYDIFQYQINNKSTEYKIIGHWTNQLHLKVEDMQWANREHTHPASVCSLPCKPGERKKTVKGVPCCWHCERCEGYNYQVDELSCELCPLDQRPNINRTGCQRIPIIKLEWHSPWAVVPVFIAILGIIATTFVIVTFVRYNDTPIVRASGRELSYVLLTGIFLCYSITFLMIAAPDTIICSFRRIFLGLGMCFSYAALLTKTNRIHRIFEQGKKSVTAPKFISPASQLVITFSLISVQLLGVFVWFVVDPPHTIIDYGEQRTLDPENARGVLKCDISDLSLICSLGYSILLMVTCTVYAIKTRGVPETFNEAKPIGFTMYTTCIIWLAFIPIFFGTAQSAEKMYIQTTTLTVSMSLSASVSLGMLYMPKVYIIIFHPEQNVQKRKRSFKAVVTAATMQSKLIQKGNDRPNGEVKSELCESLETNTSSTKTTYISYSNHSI
`CC(=O)Nc1cccc(/C(C)=N\NC(=O)c2ccc(Cn3nc([N+](=O)[O-])c(Cl)c3C)o2)c1` gave a z-score of -0.798.
With `O=C(Nc1cc(N2CCOCC2)ncn1)NC1(C(F)(F)F)Oc2ccc(Cl)cc2O1` (stereo not given) the z-score was 0.375.
`S=c1[nH]nc(-c2ccco2)n1-c1cccc2ccccc12` gave a z-score of -0.398.
With `CSc1[nH]c(=O)c(C(=O)O)cc1C#N` the z-score was -0.112.
`Cc1ccc(-n2c(C)cn(C(=O)c3ccccc3)c2=S)cc1` showed a z-score of -0.117.
`CCOC(=O)c1c(NC(=O)Cn2nnc(-c3ccccc3Cl)n2)sc(C)c1C` showed a z-score of -0.105.
Work on `COC(=O)CCN(C(=O)c1ccc2c(c1)OCO2)c1ccccn1` yielded a z-score of 0.0413.
Work on `CC(=O)N1CCc2cc(C(=O)CN3CCN(c4ccccc4F)CC3)ccc21` yielded a z-score of -0.32.
Work on `CCC(=O)N1c2ccccc2NC2=C(C(=O)CCC2)C1c1ccccc1` (stereo not given) yielded a z-score of -0.398.
Work on `CCOC(=O)c1ccc2[nH]c(C)c(CCC(C)=O)c(=O)c2c1` yielded a z-score of 0.552.
`COc1cccc(CN2CCC(N(CCc3ccccc3)Cc3ccccc3)CC2)c1OC` gave a z-score of -0.082.
`O=C(NC1(C(F)(F)F)N=C2SCCN2C1=O)c1ccccc1` (stereo not given) gave a z-score of -0.628.
`CCOc1ccccc1N1C(=O)c2cccnc2C1=O` gave a z-score of 0.744.
For `Cc1ccc2c(c1)CCCN2C(=O)C1CCCO1` (stereo not given), the z-score was 0.0129.
Work on `Cc1cc(C)cc(N(C(C)C(=O)NCCC2=CCCCC2)S(C)(=O)=O)c1` (stereo not given) yielded a z-score of 0.122.
Compound `CCOc1ccccc1NC(=O)CC1NCCNC1=O` (stereo not given) has a z-score of -0.495.
`Cc1ccc(NC(=O)CS(=O)CC(=O)N(c2ccc(C)cc2)C(C)C(=O)NC2CCCCC2)cc1` (stereo not given) was tested, and the z-score was -0.276.
Work on `OCCSc1c(F)c(SCCO)c(SCCO)c(F)c1SCCO` yielded a z-score of 0.711.
Compound `Cn1c(O)c(C=NC(CC(N)=O)C(=O)O)c(=O)n(C)c1=O` (stereo not given) has a z-score of 0.259.
Compound `O=C(Oc1ccc2ccccc2c1Cl)N1CCCCCC1` has a z-score of -0.207.
Compound `COc1ccc(N2CCN(S(=O)(=O)c3cccc4nsnc34)CC2)cc1` has a z-score of -0.213.
With `O=C1C2CCCN2C(=O)N1CCN1CCN(c2ccccc2)CC1` (stereo not given) the z-score was -0.0541.
`COc1ccc(CSCC(=O)N/N=C/c2ccccc2OCc2ccccc2)cc1` gave a z-score of 1.27.
Work on `Cn1c(SCc2nc3ccccc3s2)nnc1-c1ccc2c(c1)OCO2` yielded a z-score of -0.882.
In the case of `CCC(C)NC(=O)C1CCN(C(=O)c2ccccc2)CC1` (stereo not given), the z-score is reported as 0.537.
`CC(=O)N1CCc2cc(S(=O)(=O)NC(CC(C)C)C(=O)N3CCn4c3nc3ccccc34)ccc21` (stereo not given) showed a z-score of -0.0969.
`Cc1cc(Cl)ccc1NC(=S)NCc1cccs1` was tested, and the z-score was 0.0494.
With `O=C(c1sc2ccccc2c1Cl)N1CCN(c2ncccn2)CC1` the z-score was -0.0901.
`Cn1c(=O)oc2cc(S(=O)(=O)N3CCCC(C(=O)N4CCc5ccccc5C4)C3)ccc21` (stereo not given) was tested, and the z-score was 0.0668.
`COc1ccccc1N1CCN(/N=C/C=C\c2ccco2)CC1` gave a z-score of -0.216.
`CC(C)(C)c1[nH]nc2c1C(c1cccnc1)C(C#N)=C(N)O2` (stereo not given) showed a z-score of 0.285.
`Cc1nc2c3cnn(-c4ccccc4)c3ncn2n1` gave a z-score of -0.201.
For `CN(C)c1ccc(C(CNC(=O)c2ccccc2F)c2c[nH]c3ccccc23)cc1` (stereo not given), the z-score was 0.0357.
Compound `Cc1ccc2nc(/C(C#N)=C\c3ccc(N4CCOCC4)o3)[nH]c2c1` has a z-score of -1.6.
For `COc1ccc(-c2cc(C(=O)Nc3cc(C)nn3-c3ccccc3)no2)cc1`, the z-score was -0.523.
In the case of `COC(=O)[C@H](C)NC(=O)NC(C)CCc1ccccc1` (stereo not given in full), the z-score is reported as -0.368.
`O=C(c1ccccc1)C(Sc1ncn[nH]1)c1ccccc1` (stereo not given) gave a z-score of -0.672.
Work on `COc1ccc(OC)c(NC(=O)CCN2CCCCC2)c1` yielded a z-score of -0.459.
`Cc1ccc(C(=O)Nc2ccccc2C(=O)NCc2ccco2)cc1S(=O)(=O)N1CCCCC1` was tested, and the z-score was -0.376.
With `NC(=O)c1ccc(-n2nc(C(F)(F)F)c3c2CCCC3)cc1` the z-score was -0.0342.
`COC(=O)c1ccccc1NC(=O)Cn1cnc2c(cnn2-c2ccc(C)c(C)c2)c1=O` was tested, and the z-score was 1.51.
`CC(=O)Nc1ccc(NC(=O)CSc2nnc(-c3ccco3)n2Cc2ccco2)cc1` gave a z-score of -0.443.
`COc1ccc(NC(=O)COC(=O)/C=C/C(=O)OCC(=O)Nc2ccc(OC)c(Cl)c2)cc1Cl` showed a z-score of -0.209.
For `O=C(NNC(=O)C1CCN(Cc2ccccc2)CC1)c1cccc(Cl)c1`, the z-score was 0.0829.
In the case of `Cc1ccc(C(C)C)c(OCc2nnc(SCC(=O)Nc3nccs3)n2C)c1`, the z-score is reported as 0.133.
For `CC1(C)CC(=O)C=C(NC2CCS(=O)(=O)C2)C1` (stereo not given), the z-score was 0.134.
For `Cc1oc(-c2ccc(Cl)cc2)nc1CN1CCC(C(=O)NCCCN2CCCC2=O)CC1`, the z-score was -0.893.
`OCCNc1nc2ccc(Cl)cc2[nH]1` showed a z-score of -0.829.
With `CCc1ccc(NC(=O)Cc2ccc(-n3cccc3)cc2)cc1` the z-score was -0.068.
`CCC[C@@H](NS(=O)(=O)c1ccc(C)cc1)C(=O)Oc1ccc2c3c(c(=O)oc2c1)CCC3` gave a z-score of -0.365.
In the case of `O=C(CSCc1ccc(Cl)cc1)Nc1ccccc1C(=O)N1CCOCC1`, the z-score is reported as -0.0696.
In the case of `Nc1nc(SCc2ccccc2Cl)ns1`, the z-score is reported as 0.317.
`CCOC(=O)c1c(C)n(C)c2ccc(OC(=O)c3ccoc3)cc12` gave a z-score of 0.225.
Compound `COc1cc(NC(=O)c2ccccc2Cl)ccc1NC(=O)c1ccco1` has a z-score of -0.115.
Compound `Cc1ccc2c(Cl)cc(Cl)c(OCC(=O)Nc3ccc(C)c(S(=O)(=O)N(C)C)c3)c2n1` has a z-score of 2.31.
Compound `Cc1cc(N2CCOCC2)nc2ccc(NC(=O)CCC(=O)N3CCCC(C)C3)cc12` (stereo not given) has a z-score of 2.7.
`CC(C)(C)c1cc(CN(CCO)CCO)cc(C(C)(C)C)c1O` showed a z-score of 0.0504.
With `COc1ccc(Cl)cc1NC(=O)C(C)N(C)Cc1cccc(Cl)c1Cl` (stereo not given) the z-score was -0.242.
In the case of `O=C(NCC1CCCO1)C1CCC(=O)N1CCc1ccccc1` (stereo not given), the z-score is reported as 0.182.
Compound `Cc1cc(C)cc(N(CC(=O)N2CCC(C)CC2)S(C)(=O)=O)c1` has a z-score of 0.413.
`COc1cccc(NS(=O)(=O)CC23CCC(CC2=O)C3(C)C)c1` (stereo not given) gave a z-score of -0.22.
With `COc1cc(CCC(=O)Nc2cccc(S(=O)(=O)N(C)C)c2)cc(OC)c1OC` the z-score was 0.738.
Compound `COc1ccc(CCNC(=O)CN2CCN(Cc3ccc(F)cc3)C2=O)cc1OC` has a z-score of -0.0649.
`Cc1cc([N+](=O)[O-])ccc1NCc1ccc2ccccc2c1` gave a z-score of 0.663.
`CCn1c2ccccc2c2cc(NC(=S)N3CCOCC3)ccc21` showed a z-score of -0.0615.
With `Oc1ccccc1-c1n[nH]c(=S)n1Cc1ccco1` the z-score was -0.0896.
`Cc1cc(NCc2ccco2)n2c(nc3ccccc32)c1C#N` was tested, and the z-score was -0.413.
`COCCCNC(=O)C(C#N)c1nc2ccccc2nc1N1CCCC1` (stereo not given) showed a z-score of -0.459.
Compound `N/C(=N\OC(=O)CCC1CCCCC1)c1ccccn1` has a z-score of 0.237.
With `Cc1ccc(S(=O)(=O)NNc2nc3ccccc3nc2C(F)(F)F)cc1` the z-score was -0.286.
